# In the RNAGym collection of RNA variant scans (doi:10.1073/pnas.2313332121):
# Variants at the background level are over-represented here.
# B1: TPR 5TU (parent)
# chain: GGAUCUUCUCGAUCUAACAAAAAAGACAAAUCUGCCACAAAGCUUGAGAGCAUCUUCGGAUGCAGAGGCGGCAGCCUUCGGUGGCGCGAUAGCGCCAACGUUCUCAACUAUGACACGCAAAACGCGUGCUCCGUUGAAUGGAGUUUAUCAUG
# Variants of: B1
# Test: polymerase ribozyme fitness, log enrichment relative to wild type (log ratio); higher = more active; in vitro selection for triplet polymerase activity
# In short: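 Fitness measures genotype enrichment against wild-type enrichment on a logarithmic scale, with inverse-variance-weighted averaging of replicates. The logarithm is base 2, and genotypes were kept only with ≥10 input reads and ≥1 read per output in Illumina sequencing. The sequenced libraries came from one triplicate in vitro selection round, including frozen incubation at −7 °C, of PCR-built, transcribed mutant libraries of each subunit of a heterodimeric triplet polymerase ribozyme.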
row,Variant,polymerase ribozyme fitness (log ratio)
1,G92U A137G U151A,≤ -4.2
2,G92U C93A G133U G140A,≤ -4.2
3,G92U C99U U144G,0.0398
4,G92U C108U U148A,≤ -4.2
5,G92U C118A,-1.05
6,G92U G94C A106G C123A U145C,-1.97
7,G92U G124U G141C,-0.283
8,G92U G133U,-3.41
9,G92U U104G C132U,-2.5
10,G92U U146A,-0.393
11,G92U U148A,-2.71
12,C93A A98G,-1.81
13,C93A A106C A120U,-2.8
14,C93A A106G,-1.9
15,C93A A110U,-3.99
16,C93A A120U,-3.4
17,C93A A142U,-3.16
18,C93A C95A C103A U135A,≤ -4.2
19,C93A C95U,-3.37
20,C93A C116G U135G,≤ -4.2
21,C93A C125U,-2.47

row,Variant,polymerase ribozyme fitness (log ratio)
1,C93A G94U G136C U145G,≤ -4.2
2,C93A G100C C118G A138G,≤ -4.2
3,C93A G126A A137G,-2.09
4,C93A U102C C105G A119C U135G,≤ -4.2
5,C93A U139C,≤ -4.2
6,C93A U146G,-3.27
7,C93A U148G G152U,≤ -4.2
8,C93A U151G,≤ -4.2
9,C93G A97G G140C A147U C149G,≤ -4.2
10,C93G A97U U145G,≤ -4.2
11,C93G A98U C105G C116A A142G,≤ -4.2
12,C93G A106C G141U C149A,≤ -4.2
13,C93G A142U,-3.03
14,C93G A147U,-1.74
15,C93G A150G,-4.14
16,C93G C103U A106C C118U U135G,≤ -4.2
17,C93G C105A A107G G141U,≤ -4.2
18,C93G C105A G136U,≤ -4.2
19,C93G C108G,-3.9
20,C93G C108G A142C C149U U151G,≤ -4.2
21,C93G C123U G141U,-2.27

row,Variant,polymerase ribozyme fitness (log ratio)
1,C93G G100A,≤ -4.2
2,C93G G112A,≤ -4.2
3,C93G G141C,-3.36
4,C93G U139A,≤ -4.2
5,C93U A97C G140A,≤ -4.2
6,C93U A97U C125A,-2.13
7,C93U A98G,-1.59
8,C93U A107G C118G G133C,≤ -4.2
9,C93U A107G G117A G140U,≤ -4.2
10,C93U A113U A119C G140U,-3.82
11,C93U A119G G143U U145G,-3.92
12,C93U A142C,-0.842
13,C93U C95U C131U,-0.998
14,C93U C99A,-3.72
15,C93U C114U G141A,≤ -4.2
16,C93U C116G G124U,≤ -4.2
17,C93U C116U A122U,-1.45
18,C93U C118U,-1.84
19,C93U C118U G143C,≤ -4.2
20,C93U G133C,-2.76
21,C93U G141A U146G,-3.48

row,Variant,polymerase ribozyme fitness (log ratio)
1,C93U G141U,-0.142
2,C93U U101A,-2.19
3,C93U U102G,≤ -4.2
4,C93U U104G,-1.8
5,C93U U148A,-3.85
6,G94A A97U,-1
7,G94A A107U U148A,≤ -4.2
8,G94A A110G,-2.35
9,G94A A119U,-2.21
10,G94A C105A,-1.65
11,G94A C108A A115U U146C,≤ -4.2
12,G94A C116U A122U G136A,-0.164
13,G94A G100C A115U,≤ -4.2
14,G94A G112U,≤ -4.2
15,G94A G124A A150U,0.987
16,G94A G133C,-2.71
17,G94A G141A A150U,≤ -4.2
18,G94A G143A,-1.01
19,G94A U101G,-0.0834
20,G94A U104C C149U,-1.16
21,G94A U148A,-3.08
